# Test results from PubChem BioAssay AID1645882 (National Center for Advancing Translational Sciences (NCATS), 2021).
# The whole screen tested about 16,000 compounds, of which about 120 (0.75%) were called active. Inconclusive results (about 4%) are left out. The call rests on the fitted dose curve; in most records, active means well fitted inhibition curve with a large enough effect; inconclusive means small, poorly fitted or top-dose-only effect; inactive means no such curve, though single readings can be large or run the other way. The list shows a part of the results.
# Molecular target: Rap guanine nucleotide exchange factor 3 (Homo sapiens) (UniProt O95398)
# UniProt O95398, sequence (O95398 whole entry, looked up): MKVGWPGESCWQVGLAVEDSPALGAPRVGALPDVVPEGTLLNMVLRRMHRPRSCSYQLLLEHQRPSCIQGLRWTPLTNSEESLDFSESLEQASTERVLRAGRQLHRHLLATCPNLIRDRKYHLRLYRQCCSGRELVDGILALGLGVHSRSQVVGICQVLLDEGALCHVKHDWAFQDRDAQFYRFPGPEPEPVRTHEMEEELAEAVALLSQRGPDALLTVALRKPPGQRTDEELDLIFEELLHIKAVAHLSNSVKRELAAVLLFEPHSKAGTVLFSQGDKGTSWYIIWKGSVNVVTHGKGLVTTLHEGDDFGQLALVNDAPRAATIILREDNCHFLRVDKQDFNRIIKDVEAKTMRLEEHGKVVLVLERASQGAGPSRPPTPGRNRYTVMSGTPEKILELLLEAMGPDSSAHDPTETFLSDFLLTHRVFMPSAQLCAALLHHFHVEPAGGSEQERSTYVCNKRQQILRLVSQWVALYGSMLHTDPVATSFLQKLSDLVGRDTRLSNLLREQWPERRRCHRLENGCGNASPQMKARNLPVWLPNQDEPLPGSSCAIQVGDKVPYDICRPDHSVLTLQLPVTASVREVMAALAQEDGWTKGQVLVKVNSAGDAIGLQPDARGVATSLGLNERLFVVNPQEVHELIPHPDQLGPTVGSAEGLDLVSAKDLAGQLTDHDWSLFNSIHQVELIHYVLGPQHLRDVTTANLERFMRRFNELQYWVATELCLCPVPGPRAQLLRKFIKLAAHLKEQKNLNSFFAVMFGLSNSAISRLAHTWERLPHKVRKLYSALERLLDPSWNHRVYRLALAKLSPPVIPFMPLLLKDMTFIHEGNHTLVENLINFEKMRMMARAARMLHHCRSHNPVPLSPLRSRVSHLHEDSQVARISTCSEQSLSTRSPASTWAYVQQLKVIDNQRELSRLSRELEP
# Test: Validation qHTS for antagonist of cAMP-regulated guanine nucleotide exchange factor 3 (EPAC1); further: nearly all actives have a fitted effect of over 75% in size
# Conditions: EPAC1 Rap1B-BODIPY-GDP exchange, fluorescence; activity change, negative = inhibition: at the top concentration
# How it was run: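 EPAC1 (100 nM) mixed with 250 nM RAP1B-BODIPY-GDP and 50 uM GDP; compounds in concentration series, 5 min at room temperature. Fluorescence (ex 480/em 540 nm) read every 5 min for 30 min; normalized to ATA control and DMSO.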
row,SMILES,"activity change, negative = inhibition"
1,NCC(=O)c1ccc(Cl)c(Cl)c1,inactive: 16.1%
2,CC1OC(=O)C(C(C)C)NC(=O)C(C(C)C)OC(=O)C(C(C)C)NC(=O)C(C)OC(=O)C(C(C)C)NC(=O)C(C(C)C)OC(=O)C(C(C)C)NC(=O)C(C)OC(=O)C(C(C)C)NC(=O)C(C(C)C)OC(=O)C(C(C)C)NC1=O (stereo not given),inactive: -5.43% [at 75.8 µM]
3,COC1C(O)C(C)O[C@@H](OC2CC[C@@]3(C)C4CC[C@]5(C)C(C6=CC(=O)OC6)CC[C@@]5(O)C4CC[C@@H]3C2)C1O (stereo not given in full),inactive: 21.8%
4,CC1(C)[C@@H](O)C[C@H]2[C@](C)(O)[C@@H]3CC[C@H]4[C@@H](O)[C@@]3(C[C@@H](O)[C@@]21O)C[C@@]4(C)O,inactive
5,C=CC[C@]1(O)CC[C@H]2[C@@H]3CCC4=CC(=O)CCC4=C3C=C[C@@]21C,inactive: 33.5%
6,C[C@@H]1O[C@H](C[N+](C)(C)C)C[C@@H]1O,inactive: 9.38%
7,CS(=O)(=O)c1ccc(C(=O)C2C(=O)CCCC2=O)c([N+](=O)[O-])c1,inactive: 34.6% [at 320 µM]
8,C=CCN1CC[C@]23c4c5ccc(O)c4OC2C(=O)CC[C@]3(O)C1C5 (stereo not given in full),inactive: 8.06%
9,COc1cc2c(cc1OC)-c1c(O)c(OC)cc3c1[C@H](C2)N(C)CC3,inactive: 5.87%
10,CCOc1ccc2c3c1O[C@H]1[C@@H](O)C=C[C@H]4[C@@H](C2)N(C)CC[C@@]341,inactive: 19%
11,Cn1cnc(CCN)c1,inactive: -4.39% [at 75.8 µM]
12,COc1cc2c(cc1OC)-c1c(OC)c(OC)c(C=O)c3c1[C@H](C2)N(C)CC3,inactive: -8.9%
13,Cc1ccccc1-n1c(CF)nc2ccc(N)cc2c1=O,inactive: 6.26%
14,COc1ccc(NC(=O)N2CCCC3(CCN(C(=O)Oc4ccccc4)CC3)C2)cc1,inactive: 13.8%
15,CC(Cc1ccc(O)cc1)NCC(O)c1cc(O)cc(O)c1 (stereo not given),inactive
16,C/C(=C\c1csc(C)n1)[C@@H]1C[C@@H]2O[C@]2(C)CCC[C@H](C)[C@H](O)[C@@H](C)C(=O)C(C)(C)[C@@H](O)CC(=O)O1,inactive: 14.9%
17,C=C[C@H]1CN2CC[C@H]1C[C@@H]2[C@@H](O)c1ccnc2ccccc12,inactive: 8.42%
18,CCN(CC)C(=O)/C(Cl)=C(\C)OP(=O)(OC)OC,inactive: 20.2%
19,Nc1ncnc2c1ncn2[C@@H]1O[C@H](COP(=O)(O)CP(=O)(O)O)[C@@H](O)[C@H]1O,inactive: 18.7%
20,C=CCN=C=S,inactive: 14.8%
21,CN(N=O)c1ccc(O)c(O)c1,inactive: -8.92% [at 75.8 µM]
22,CCN1C[C@]2(C)CC[C@H](O)[C@@]34C5C[C@@H]6[C@@H](OC)C[C@@](O)(C5[C@H]6O)[C@@H](CC23)[C@@H]14 (stereo not given in full),inactive
23,CC[C@H](O)C(C[C@H](C)N(C)C)(c1ccccc1)c1ccccc1,inactive: 40.7% [at 320 µM]
24,CCOC(=O)[C@]12Cc3cc(Cl)ccc3[C@H]1N(Cc1ccccc1)C(=O)c1ccccc12,inactive: -13.3%
25,c1cc2c(cc1[C@H]1OC[C@@H]3[C@H]1CO[C@H]3c1ccc3c(c1)OCO3)OCO2,inactive: -0.359%

row,SMILES,"activity change, negative = inhibition"
1,CSc1nc(NC(C)C)nc(NC(C)C)n1,inactive: 3.33%
2,CCN1C[C@]2(COC)C(O)C[C@H](OC)[C@@]34C5C[C@]6(O)C(OC)C(O)[C@](OC(C)=O)(C5C6OC(=O)c5ccccc5)C(C(OC)C23)C14 (stereo not given in full),inactive: 10.2%
3,CCCN1CCC[C@@H]2Cc3nc(N)ncc3C[C@H]21,inactive
4,CCN[C@@H](C)Cc1ccccc1,inactive: 31.8% [at 320 µM]
5,OCC1CCCN2CCCCC12 (stereo not given),inactive: 12.6%
6,COc1cc(CC(C)N)cc2c1OCO2 (stereo not given),inactive: -1.66% [at 320 µM]
7,CCC(=O)OC1CCC2C3CCC4=CC(=O)CC[C@@]4(C)C3CC[C@]12C (stereo not given in full),inactive: 1.82%
8,C=CCN1C[C@H](C)N([C@H](c2ccc(C(=O)N(CC)CC)cc2)c2cccc(O)c2)C[C@H]1C,inactive: 3.36%
9,C=CCN1C[C@H](C)N([C@H](c2ccc(C(=O)N(CC)CC)cc2)c2cccc(OC)c2)C[C@H]1C,inactive
10,c1cc2c(cc1C1OC[C@@H]3C(c4ccc5c(c4)OCO5)OCC13)OCO2 (stereo not given in full),inactive: 9.58%
11,O=C(O)c1ccc(NC(=O)N2C[C@H]3C[C@@H](C2)c2cccc(=O)n2C3)cc1,inactive: 3.8%
12,CCCCCCC[n+]1ccc(-c2cc[n+](CCCCCCC)cc2)cc1,inactive: 3.21%
13,OC1CCCCC1N1CCC(c2ccccc2)CC1 (stereo not given),inactive
14,CC(Cc1ccc(OCC(=O)O)cc1)NCC(O)c1cccc(Cl)c1 (stereo not given),inactive
15,CC(C)=CCOc1c2occc2cc2ccc(=O)oc12,inactive
16,NC(=O)c1ccc(N)nc1,inactive: 16.1%
17,N[C@@H](Cc1ccc(N(CCCl)CCCl)cc1)C(=O)O,inactive: 20.6%
18,CC1=CC(=O)c2c(O)cccc2C1=O,inactive: -10.8%
19,COC(=O)/C(C)=C\CC12OC(C)(C)C3CC(C=C4C(=O)c5c(OC)c6c(c(CC=C(C)C)c5OC431)OC(C)(CCC=C(C)C)C=C6)C2=O (stereo not given),inactive: 5.89%
20,CC(C)NC(=O)N1CCCC2(CCN(C(=O)Oc3ccccc3)CC2)C1,inactive: 12.4%
21,CC(C)N(CCC(C(N)=O)(c1ccccc1)c1ccccn1)C(C)C (stereo not given),inactive
22,O=[N+]([O-])/C=C/c1ccc2c(c1)OCO2,inactive: 11.9% [at 75.8 µM]
23,COP(N)(=O)SC (stereo not given),inactive: -10.9%
24,CCC12CCCN3CCC4(c5ccc(OC)c(O)c5N(C(C)=O)C4CC1)C32 (stereo not given),inactive: 12.8%
25,CO[C@H]1[C@@H](O)C[C@H](O[C@H]2[C@@H](O)C[C@H](O[C@H]3[C@@H](O)C[C@H](O[C@H]4CC[C@@]5(C)[C@H](CC[C@@H]6[C@@H]5C[C@@H](O)[C@]5(C)[C@@H](C7=CC(=O)OC7)CC[C@]65O)C4)O[C@@H]3C)O[C@@H]2C)O[C@@H]1C,inactive: -8.83%
